In paper PMC6919601, “Identification of Plasmodium dipeptidyl aminopeptidase allosteric inhibitors by high throughput screening” (PLoS ONE, 2019):
Several values for one entry are separate records, joined by “and”; a condition that tells them apart may be missing. Equal entries are not always repeated. In all, about 110,000 compounds went through this assay and about 230 (0.21%) showed an effect of 50% or more. The list shows a part of the results.

Each compound was assayed against DPAP1 (Plasmodium falciparum, UniProt Q8IIJ9) (assay: primary screen, percent inhibition; read by cleavage of a fluorogenic dipeptide substrate; higher = more effect of the substance).
Design: species or system P. falciparum D10 trophozoite lysates; single well
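Note: 30 min substrate incubation versus DMSO and 10 µM JCP410 controls.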

DPAP1, sequence (Q8IIJ9 whole entry, looked up): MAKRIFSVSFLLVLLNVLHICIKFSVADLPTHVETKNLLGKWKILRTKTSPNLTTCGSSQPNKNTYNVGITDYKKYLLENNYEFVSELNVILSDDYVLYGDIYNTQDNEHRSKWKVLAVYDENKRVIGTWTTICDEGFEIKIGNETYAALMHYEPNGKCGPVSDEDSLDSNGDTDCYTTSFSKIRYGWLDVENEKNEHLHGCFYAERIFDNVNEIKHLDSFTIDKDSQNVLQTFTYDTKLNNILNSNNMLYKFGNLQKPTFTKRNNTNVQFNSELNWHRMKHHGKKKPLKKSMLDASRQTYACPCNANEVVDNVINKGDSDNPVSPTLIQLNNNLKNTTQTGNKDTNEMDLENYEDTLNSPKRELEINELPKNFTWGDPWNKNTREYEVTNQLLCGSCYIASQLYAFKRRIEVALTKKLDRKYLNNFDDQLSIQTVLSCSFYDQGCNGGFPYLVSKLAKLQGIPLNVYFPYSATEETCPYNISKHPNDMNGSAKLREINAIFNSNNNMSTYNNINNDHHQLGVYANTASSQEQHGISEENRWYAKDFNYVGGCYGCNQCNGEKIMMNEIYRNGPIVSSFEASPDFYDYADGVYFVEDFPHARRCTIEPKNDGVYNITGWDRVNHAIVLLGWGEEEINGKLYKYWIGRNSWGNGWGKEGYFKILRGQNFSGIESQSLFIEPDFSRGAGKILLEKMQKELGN

| Structure (SMILES) | % Inhibition @ 10 uM |
| --- | --- |
| CC(=O)Nc1cc(-c2ccccc2)sc1C(=O)O | -1.42% |
| O=C(NC1CCCc2ccccc21)C1CCCN(S(=O)(=O)c2ccc3nc(O)ccc3c2)C1 (stereo not drawn) | 1.66% |
| O=C(CCCOc1ccc(Cl)cc1Cl)NCC1CCCO1 (stereo not drawn) | 0.687% |
| O=C(Nc1ccc2ccccc2c1)c1cc(F)c(Cl)nc1Cl | 3.72% |
| Oc1ccccc1-c1nc(/C=C/c2cccs2)no1 | 0.032% |
| Cc1c(Cl)cccc1N(CC(=O)N1CCc2ccccc2C1)S(C)(=O)=O | 1.29% |
| COc1ccc(-c2noc(-c3ccc(Cl)c(Cl)c3)n2)cc1OC | -1.25% |
| COc1ccccc1C(=O)Nc1cc(-c2ccccc2)no1 | -3.24% |
| CCOc1cc(C2C3=C(O)CC(C)(C)CC3=Nc3ncnn32)ccc1O (stereo not drawn) | -2.92% |
| COc1ccc2c(c1)cc1c(=O)n(CC(=O)NCCc3ccc(OC)c(OC)c3)nc(C)n12 | 0.0198% |
| CCCCOc1ccc(/C=C2\N=C(c3ccc(OC)cc3)OC2=O)cc1 | 2.11% |
| CC(=O)N1N=C(c2ccc(F)cc2)OC12CCCCC2 | -1.61% |
| COc1ccc(C(=O)ON=C2c3ccccc3-c3ccccc32)cc1OC | -5.62% |
| O=C(O)c1ccc(CNC(=O)C2CCN(S(=O)(=O)c3cccc4nsnc34)CC2)cc1 | 0.208% |
| COc1ccc(CN2CCN(c3ccccc3F)CC2)cc1Br | -3.56% |
| Nc1cc(N)nc(SCc2ccc(C(=O)Nc3ccccc3F)cc2)n1 | 3.58% |
| COc1ccccc1C(=O)Nc1ccc2c(C)cc(=O)oc2c1 | -5.11% |
| Cc1c(C)c2cc3c(C(C)(C)C)coc3c(C)c2oc1=O | -6.64% |
| CC(NC(=O)Cn1nc(-c2ccc(Cl)cc2)c2ccccc2c1=O)c1ccccc1 (stereo not drawn) | -2.14% |
| CN(C)c1nc(OCC(F)(F)F)nc(N(c2ccccc2)c2ccccc2)n1 | -4.35% |
| CCOC(=O)c1c(-c2ccccc2)csc1NC(=O)c1nc(SC)ncc1Cl | -1.11% |
| CC1CCCC(NC(=O)C2CCC(C/N=c3/c(N4CCCC4)c(O)c3=O)CC2)C1C (stereo not drawn) | 2.84% |
| O=C(Cn1nc(Cc2cccnc2)c2ccccc2c1=O)NCCCN1CCOCC1 | 2.04% |
| O=C(Nc1cccnc1)c1ccc(COc2ccccc2Br)cc1 | -0.891% |
| C/C(=N\NC(N)=S)C1(C)CC2(CC(C)(C)OC2=O)C(=O)O1 (stereo not drawn) | -0.169% |

| Structure (SMILES) | % Inhibition @ 10 uM |
| --- | --- |
| c1ccc(-c2nnc3n2C2(CCCC2)Cc2ccccc2-3)cc1 | -6.82% |
| COC(=O)c1ccc(-c2ccco2)n1CC(=O)NCc1cccc(Cl)c1 | -3.22% |
| Cc1c(C(=O)N2CCOCC2)oc2ccc3c(c12)C(=O)CC(C)(c1ccc(Cl)cc1)O3 (stereo not drawn) | -2.17% |
| CC(=O)c1ccc(NC(=O)CCC(=O)Nc2ccc(C(C)=O)cc2)cc1 | 1.62% |
| C#CCOc1c(Cl)cc(C2C(C#N)=C(N)OC3=C2C(=O)CCC3)cc1OC (stereo not drawn) | 2.32% |
| Cc1c(-c2nsc(NC(=O)c3cccs3)n2)nnn1-c1ccc(F)cc1F | -4.33% |
| O=C1CCCN1CCCNc1nc2ccccc2c2nc(-c3cccnc3)nn12 | -4.21% |
| NC(=O)C1CCCN(Cc2c(Cl)cccc2Cl)C1 (stereo not drawn) | 0.265% |
| O=C(c1ccc2c(Cl)c3c(nc2c1)CCC3)N1CCN(Cc2ccccc2)CC1 | -7.65% |
| N#CC1=C(N)Oc2cc(N)ccc2C1c1cccc(Br)c1 (stereo not drawn) | -3.13% |
| Cc1ccc(OCC(=O)Nc2ccc(NC(=O)c3cccs3)cc2)c(C)c1 | -13.4% |
| CCCOc1ccccc1C1C2=C(O)CCCC2=NC2=C1C(=O)CCC2 (stereo not drawn) | -0.25% |
| COc1ccc(OC)c(S(=O)(=O)N2CCN(C)CC2)c1 | 1.25% |
| O=C(CN1CCCCC1)NCCNS(=O)(=O)c1ccccc1 | -3.74% |
| CCOc1ccc(C(=O)Nc2ccc(N3CCN(S(C)(=O)=O)CC3)cc2)cc1 | -0.318% |
| O/C(=C\c1nc2ccccc2nc1O)c1ccc(F)cc1 | -2.24% |
| Cc1c(CCO)c2ccccc2n1Cc1ccccc1 | 0.00178% |
| Cc1nc2ccccc2n1CCc1nc2c3ccccc3nc(NCCN3C(C)CCCC3C)n2n1 (stereo not drawn) | 0.981% |
| Cc1ccnc(NC(=O)CCC(=O)N2Cc3ccccc3Oc3ncccc32)c1 | 4.36% |
| CCOc1ccc(N2CC(C(=O)Nc3ccccc3C)CC2=O)cc1 (stereo not drawn) | -4.68% |
| Cc1nc(NC(=O)COc2ccc(Cl)cc2Cl)sc1C(=O)N(C)C | 0.907% and -0.305% |
| COc1cccc2c1SCc1ccccc1C2CC(N)=O (stereo not drawn) | -0.297% |
| CCOC(=O)c1cnc2c(OC)cccc2c1N | 4.61% |
| Cc1ccc(N2C(=O)C(Cl)=C(N3CCCCCC3)C2=O)c(C)c1 | -1.06% |
| Cc1cc(C)c2ccc[n+]([O-])c2c1O | 2.79% |

| Structure (SMILES) | % Inhibition @ 10 uM |
| --- | --- |
| Fc1ccc(/C=C/c2nc3ccccc3nc2N2CCOCC2)cc1 | -7.09% |
| O=C(NCCC1=CCCCC1)c1csc2c1CCCC2 | -5.05% |
| Cc1cccc(N2C(=O)NC(=O)/C(=C/Nc3cccc(C(=O)O)c3)C2=O)c1 | -3.03% |
| CCNS(=O)(=O)c1ccccc1[N+](=O)[O-] | -0.999% |
| O=C(CNCCCO)NC12CC3CC(CC(C3)C1)C2 | 7.2% |
| O=C(CCn1nc(-c2ccccc2)c2ccccc2c1=O)N1CCOCC1 | -4.84% |
| Cc1ccc(OCC(=O)Nc2ccc(Br)cc2)c(C)c1 | 0.52% |
| Cc1ccccc1C(=O)c1cccn1CC(=O)NCc1ccccc1Cl | 1.15% |
| OCCNc1nc(N2CCN(c3ccccc3)CC2)nc2ccccc12 | -2.76% |
| Cc1nn(C(=O)c2sc3ccccc3c2Cl)c(C)c1Cl | -3.21% |
| CCN(CC)CCN(C(=O)c1ccco1)c1nc2c(Cl)cccc2s1 | 2.75% |
| Cc1cc(C)c2oc(C(=O)N(Cc3ccc(C(C)C)cc3)C3CCS(=O)(=O)C3)cc(=O)c2c1 (stereo not drawn) | 6.56% |
| O=C(NC1CCOCC1)N1CCN(c2ccccn2)CC1 | 0.635% |
| O=C(Nc1ccccc1[N+](=O)[O-])c1cccc(S(=O)(=O)Nc2ccccc2)c1 | 7.8% |
| O=C(O)c1c(-c2ccccc2)oc(-c2ccccc2)c1C(=O)O | 0.147% |
| O=C(Nc1cccc2ccccc12)C(=O)NC1CCCC1 | -1.75% |
| CC(=O)Nc1c(Cl)c(Cl)c(NC(C)=O)c2[nH]nnc12 | 1.7% |
| COc1ccc(-c2cc(C(=O)NCCCN3CCOCC3)no2)cc1 | 0.723% |
| CCCCSc1nc2cc(OCC)ccc2[nH]1 | -1.36% |
| Cc1cccc(C(=N)NOC(=O)c2c(-c3ccccc3Cl)noc2C)c1 | -1.33% |
| O=C(Nc1cccc(Cl)c1)c1cccc(NC(=O)C(C(F)(F)F)C(F)(F)F)c1 | 1.88% |
| COc1ccccc1C(=O)NC1CCS(=O)(=O)C1 (stereo not drawn) | 2.03% |
| COc1ccc([C@@H]2C(C#N)=C(N)S[C@H]2C(=O)c2ccccc2)cc1 | 2.45% |
| CC1(C)CC(=O)C(C(C2=C(O)CC(C)(C)CC2=O)c2ccc3ccccc3c2)C(=O)C1 (stereo not drawn) | 4.67% |
| O=C1NC(=O)/C(=C\c2c[nH]c3ccccc23)N1 | -0.546% |

| Structure (SMILES) | % Inhibition @ 10 uM |
| --- | --- |
| N#CC1=C(N)C(C#N)(C#N)C(c2cccc3ccccc23)C2CCCC=C12 (stereo not drawn) | -4.24% |
| COc1ccccc1-c1n[nH]c(N)n1 | -3.04% |
| CCOCCO/C(O)=C1\C(C)=NC2=C(C(=O)CC(c3cccs3)C2)C1c1ccccc1OCC (stereo not drawn) | 6.59% |
| O=C(O)c1cccc(S(=O)(=O)N2CCCCCC2)c1 | 1.7% |
| CC(C)(C)c1ccc(C(=O)N2CCN(C(c3ccccc3)c3ccccc3)CC2)cc1 | 2.78% |
| CCc1ccc(CN2CCN(Cc3cccc(F)c3)CC2)cc1 | 3.79% |
| Cc1ccc(OCC(=O)N(Cc2nc(-c3ccccc3)no2)C(C)C)c(Br)c1 | 1.38% |
| CC(OCCN1CCCC1)(c1ccc(F)cc1)c1ccc(F)cc1 | -0.988% |
| C=CCn1c(SC(C)C)nc2c1c(=O)n(C)c(=O)n2C | -6.36% |
| CCOC(=O)c1c(NC(=O)CSc2nnc3scc(-c4ccccc4)n23)sc(C)c1C | 4.08% |
| CCCCCc1cc(C(=O)O)[nH]c1-c1ccccc1 | 0.518% |
| C=CCSc1nc2sc3c(c2c(=O)n1CC)CC(C)(C)OC3 | -3.26% |
| O=C(NC(NC(=O)c1ccccc1)c1ccccc1)c1ccccc1 | 8.23% |
| Cn1c(=O)c(C(=O)Nc2ccc(Cl)cn2)c(O)c2ccccc21 | -1.98% |
| COc1ccc(CCNC(=O)CCCn2c(=O)c3cccn3c3cccnc32)c(OC)c1OC | -4.82% |
| CC1=C(C(=O)OCc2ccccc2)C(c2cccs2)C2=C(O)CC(c3cccs3)CC2=N1 (stereo not drawn) | 2.25% |
| CCOc1cc(C(=O)N(Cc2nc(-c3ccc(OC)cc3)no2)C(C)C)cc(OCC)c1OCC | 2.78% |
| CCC(C)NC(=O)CSc1nc2ccccc2c2nc3ccccc3n12 (stereo not drawn) | -4.19% |
| CC(C)C[C@H](NC(=O)c1cccc(O)n1)C(=O)NCC#N | -0.778% |
| COc1ccc(OC)c(NC2CCCCC2OC)c1 (stereo not drawn) | 3.48% |
| CS(=O)(=O)N(CC(=O)Nc1ccc(S(=O)(=O)N2CCCCC2)cc1)c1ccc(F)cc1 | -6.22% |
| COc1cc(CO)cc(Br)c1OCc1ccc(C(=O)O)cc1 | -2.22% |
| COc1ccc(OC)c(C2C3=C(O)CC(C)(C)CC3=NC(C)=C2C(=O)Nc2ccc(F)cc2)c1 (stereo not drawn) | -8.35% |
| CCOC(=O)c1ccc(-c2ccc(/C=C(\C#N)c3nn(-c4ccccc4)c(N)c3C#N)o2)cc1 | -0.995% |
